Reference: patent publication US20240368664A1, “LIVE YEAST BIOSENSORS AND METHODS OF USE THEREOF” (priority 2021, published 2024)
pEC50: −log10 of the molar value. Residues, ends and D or L forms follow the SMILES beside them. No end group written: not given here.

Assays:
CaSte2 = settings: biosensor with no protease; 10-h incubation
[1] = test system: AfuSte2 (first member), ScSte2 (second member); type: cell-based, A. fumigatus

## GARLTNFGYFEPG [CaPep2A]
CaSte2
  pEC50: ~7.30

## GARLTNFGYFEPA [CaPep2A13A]
CaSte2
  pEC50: ~7.30

## CC(C)C[C@H](NC(=O)[C@H](Cc1c[nH]cn1)NC(=O)[C@H](CS)NC(=O)[C@@H](N)Cc1c[nH]c2ccccc12)C(=O)N1CCC[C@H]1C(=O)NCC(=O)N[C@@H](CCC(N)=O)C(=O)NCC(=O)N[C@@H](CS)C(=O)O [AfuPep] (H-WCHLPGQGC-OH; N-terminus and C-terminus assumed)
[1]
  EC50 shift compared to simple split sensor: does not lead to stronger EC50 shift
